Some of the results follow.
biological target: T1, OsWOX13 (Oryza sativa, UniProt Q5QMM3 1-267); test: protein-binding microarray (RPBM); PBS, 2% BSA, 51.3 ng/ul salmon testes DNA, 50 uM zinc acetate, 200 nM TF, 25 C, 1 h; high values mean tight binding; details: protein: recombinant; tags: N-terminal polyhistidine and DsRed monomer fusion (pET32a); label: CyDye5-dUTP incorporated in the synthesized complementary strand; 3' TTTTT single-stranded linker to array surface; dsDNA, one strand shown
T1 sequence: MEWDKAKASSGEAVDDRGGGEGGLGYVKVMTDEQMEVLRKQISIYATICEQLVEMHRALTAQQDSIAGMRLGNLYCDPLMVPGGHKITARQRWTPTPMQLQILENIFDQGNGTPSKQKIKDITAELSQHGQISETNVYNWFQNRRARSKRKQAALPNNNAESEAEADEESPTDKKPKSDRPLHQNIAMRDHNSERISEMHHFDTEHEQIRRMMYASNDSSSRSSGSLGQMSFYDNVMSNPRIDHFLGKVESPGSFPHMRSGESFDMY
Method in brief: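 Using Ni–NTA, transcription factors fused N-terminally to polyhistidine and DsRed were purified after expression in E. coli BL21-CodonPlus. These were incubated at 200 nM with a blocked, double-stranded custom Agilent array for 1 h at 25 °C in a buffer containing 50 µM zinc acetate, and the array was washed. The binding signal is per-feature fluorescence intensity (arbitrary units) on an Axon 4000B scanner.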

| Sequence | binding signal |
| --- | --- |
| TTGATGTGATAGAAAAGTTGGAATTTCGAAGAAATAGTTTCGGAGTCACCTAGTGCAG | 14900 fluorescence intensity (a.u.) |
| AGGGCAATTGACAAACAGGTGGTTCCCGGTTTCTGGCCCACGGAGTCACCTAGTGCAG | 11100 fluorescence intensity (a.u.) |
| GGGGTGAATAACAAATTAACCAACGCCATGAGCATTCATGCGGAGTCACCTAGTGCAG | 4190 fluorescence intensity (a.u.) |
| AAATCAATAATTAAATATAGTTTCATAATATATTTATCTTCGGAGTCACCTAGTGCAG | 22700 fluorescence intensity (a.u.) |
| ATAAAACTGGGATTAAAACCACAGATTTCATAAGTTGAGGCGGAGTCACCTAGTGCAG | 3690 fluorescence intensity (a.u.) |
| ATCTTATAATTAAACCGTAAGTTCTTAACTCAAACCGACACGGAGTCACCTAGTGCAG | 5740 fluorescence intensity (a.u.) |
| AATTGACGTGATTTAAAATGCAACAAACGTGAAGTTAGCTCGGAGTCACCTAGTGCAG | 21200 fluorescence intensity (a.u.) |
| TGACTGAATTAAAGTCTGTAATTTCTTCAGATCTAGCCGTCGGAGTCACCTAGTGCAG | 3660 fluorescence intensity (a.u.) |
| TCAGTAAATCATATTTATTTATACTATCACTTCAACCATTCGGAGTCACCTAGTGCAG | 3600 fluorescence intensity (a.u.) |
| CTCCTAATTTACTTATGTTAAGCAGATTTTGTTGATAAATCGGAGTCACCTAGTGCAG | 20800 fluorescence intensity (a.u.) |
| CAACTATTATATAAATTGGCTATTATATTAGCTATAGATGCGGAGTCACCTAGTGCAG | 11400 fluorescence intensity (a.u.) |
| ATGATTAAAATTGATTAAGCCGTCGTCTCCCTCGTCTCCGCGGAGTCACCTAGTGCAG | 46200 fluorescence intensity (a.u.) |
| GTTGATTAATGATTAATTACATCGCAGACATGCCATTTTACGGAGTCACCTAGTGCAG | 45400 fluorescence intensity (a.u.) |
| TAATTGTAATTATTATTCACAAGATGGTGTGGTAATATCCCGGAGTCACCTAGTGCAG | 10300 fluorescence intensity (a.u.) |
| GGGCACATCATTTTGATTGGACTATTTAGCCTAGTTTGCACGGAGTCACCTAGTGCAG | 14300 fluorescence intensity (a.u.) |
| ATTTGTATCAATCATATATTGATGAGATATTGCACGAGTTCGGAGTCACCTAGTGCAG | 32100 fluorescence intensity (a.u.) |
| CGGTTTATAAGTGATTATATTTCAGCTCCCATACAACCTACGGAGTCACCTAGTGCAG | 3520 fluorescence intensity (a.u.) |
| GAGACGTAAATTAGACTTAGTTAACCATATAAGACAAATGCGGAGTCACCTAGTGCAG | 21900 fluorescence intensity (a.u.) |
| ATTAATTCATGATTAGCCTACATAATACTACAGTAAGCATCGGAGTCACCTAGTGCAG | 29200 fluorescence intensity (a.u.) |
| GTCCCAATGATTGCCAGCCCCGGTGGACGGGTGTAGAAGCCGGAGTCACCTAGTGCAG | 38100 fluorescence intensity (a.u.) |
| TCAACAAATTATTAGTTTGTAGGGTGTTTTCAATCGTGAACGGAGTCACCTAGTGCAG | 6200 fluorescence intensity (a.u.) |

| Sequence | binding signal |
| --- | --- |
| AATTTAACATATAAATTTCAAATCGATTATGAATGGATATCGGAGTCACCTAGTGCAG | 7690 fluorescence intensity (a.u.) |
| TATATTTAATTATTGATTTGATGTAACCAATTTAGTATTACGGAGTCACCTAGTGCAG | 23400 fluorescence intensity (a.u.) |
| GCTTTGAGTTAATTAGGCACTAATCGGCACAATTTTATAGCGGAGTCACCTAGTGCAG | 7480 fluorescence intensity (a.u.) |
| ATTAACTATGATTTTGCAGCATGCCATCATTTCTCTTTCTCGGAGTCACCTAGTGCAG | 9570 fluorescence intensity (a.u.) |
| CAGATGACATTGACATTGATACTAGTGGGAATTTCCCCTGCGGAGTCACCTAGTGCAG | 4060 fluorescence intensity (a.u.) |
| GATTGATTGGGACGCTGTCCAAGATAAATTGTGGACAGACCGGAGTCACCTAGTGCAG | 34300 fluorescence intensity (a.u.) |
| GAGAATAATAGTCAATCTGTAGCTCAGTGCCCTTTTCTTCCGGAGTCACCTAGTGCAG | 10800 fluorescence intensity (a.u.) |
| GTACCTGATTAGTACTAAGTGATTAGTTAGTTTAGACACGCGGAGTCACCTAGTGCAG | 31800 fluorescence intensity (a.u.) |
| AGACTGCTGAAGTGAATGATTGATGTTGTCCCATAAGCAACGGAGTCACCTAGTGCAG | 8210 fluorescence intensity (a.u.) |
| AACTCATCATCTAATTTGATGTCCTAAAGCAAATTTTGTGCGGAGTCACCTAGTGCAG | 9420 fluorescence intensity (a.u.) |
| CACGTGACTGGGCCGTGCGGTGAATTTTACATTTTACCCCCGGAGTCACCTAGTGCAG | 3970 fluorescence intensity (a.u.) |
| ACAACTAAATTAGTTTCATCTAATCTTTAAACGTTGGTCTCGGAGTCACCTAGTGCAG | 23800 fluorescence intensity (a.u.) |
| TGTAAATATATTATGATTGTAGTATAACTTATATAGTATTCGGAGTCACCTAGTGCAG | 10900 fluorescence intensity (a.u.) |
| ATTTAATTATCAGCTACCATGCCTAGCTTAGCTAGCTGTTCGGAGTCACCTAGTGCAG | 19900 fluorescence intensity (a.u.) |
| AGTCTCCCAATCCCAACTGATTGTTCAGATAGGTCAGTTACGGAGTCACCTAGTGCAG | 4160 fluorescence intensity (a.u.) |
| CTATTATATTGACTGAGCCCATCATAGGCCGAGAAGGCAACGGAGTCACCTAGTGCAG | 8890 fluorescence intensity (a.u.) |
| TAAAGTTGATGAAAATAATGTTAATTACCAGGTTCATGTTCGGAGTCACCTAGTGCAG | 9040 fluorescence intensity (a.u.) |
| AAGACGGATGATCAAAATTAGACACGAAAACTTATGGATGCGGAGTCACCTAGTGCAG | 6280 fluorescence intensity (a.u.) |
| TTAAAATTTATTTCATTATATTTAGAAAGTTATGCAAAGTCGGAGTCACCTAGTGCAG | 5160 fluorescence intensity (a.u.) |
| ATTTAATAGTATTAAACGTAGATTACTGATAAAACCTATTCGGAGTCACCTAGTGCAG | 4260 fluorescence intensity (a.u.) |
| AGGTGGAGGTGGGGAGGATGCGGGAGAGGGAGGTGATGATCGGAGTCACCTAGTGCAG | 5400 fluorescence intensity (a.u.) |

From publication PMC7819943, “Rice protein-binding microarrays: a tool to detect cis-acting elements near promoter regions in rice”
